According to PubChem BioAssay AID445 (National Center for Advancing Translational Sciences (NCATS), 2006):
In all, about 110,000 compounds went through this assay and about 40 (0.04%) were called active. Inconclusive results, whose numbers are uncertain, are shown with a selection of clear calls. The call rests on the fitted dose curve; in most records, active means well fitted curve in the direction sought with a large enough effect in the signal ratio (not every such curve was filed as active); inconclusive means small, poorly fitted or top-dose-only effect, or a change in a side signal; inactive means flat fitted curve, though single readings scatter; the % refers to the signal ratio. Where the call is inconclusive, the potency comes from a doubtful curve fit.

experiment: IkB Signaling; details: ABC-DLBCL IkBa-CBG/CBR dual luciferase ratio (green luciferase fused to IkBa over red control in OCI-Ly3 lymphoma cells), 4 h; IkBa stabilization activation: at 57.1 µM (top of the series), scaled: untreated 0%, proteasome inhibitor 100% unless noted;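 on IkBa stabilization activation: 0% = basal untreated cells and 100% = reference inhibitor full response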
In short: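 Curves were fitted separately to fusion (green), unfused (red) and ratio luminescence, then classed by r2, magnitude and activity. Cells: OCI-Ly3, 4 h compound plus doxycycline at 37C; 10 uM MG-132 defined full response.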
Potency means the concentration at half of the fitted maximal effect.

| SMILES | IkBa stabilization activation | Potency |
| --- | --- | --- |
| Cc1ccc(C(C)C)c(OCC(=O)Nc2ccccc2N2CCN(C)CC2)c1 | inconclusive: -8.46% [signal inhibitor] | – |
| Cc1ccc(S(=O)(=O)N2CCCCC2C(=O)NCc2ccco2)cc1 (stereo unspecified) | inactive | – |
| Cc1ccccc1C(=O)Nc1nc2nc(-c3ccccc3)cc(=O)n2[nH]1 | inconclusive: 3.07% [signal inhibitor] | – |
| Clc1cccc(-n2cc(-c3ccccc3)c3c(N4CCCCC4)ncnc32)c1 | inconclusive: -1.5% [signal inhibitor] | – |
| CCC(c1nnnn1Cc1ccc2c(c1)OCO2)N1CCN(c2ccccc2)CC1 (stereo unspecified) | inconclusive: 0.524% [signal inhibitor] | – |
| N=c1c(C(=O)NCC2CCCO2)cc2c(=O)n3ccccc3nc2n1CCCO (stereo unspecified) | inactive | – |
| CCOc1cc(C(=O)NCCc2csc3nc(-c4ccccc4F)nn23)cc(OCC)c1OCC | inconclusive: -0.502% [signal inhibitor] | – |
| CCCn1c(=C(C#N)C#N)s/c(=C2\C=Cc3ccccc3N2CC)c1=O | inactive | – |
| COc1ccc(Cn2c(C(=O)O)c(CNCCc3ccco3)c3ccc(C)cc32)cc1 | inconclusive: 1.48% [signal inhibitor] | – |
| COc1ccc2nc(N3CCC(O)CC3)c(C#N)cc2c1 | inactive | – |
| Cc1cc(C(F)F)n2nc(C(=O)Nc3cccc(Cl)c3C)nc2n1 | inactive | – |
| Cc1nn(CCCC(=O)NCCc2ccc(Cl)cc2)c(=O)c2c1sc1ccccc12 | inactive | – |
| CCOc1ccc(CNC(=O)C2CCN(S(=O)(=O)c3cn(C)cn3)CC2)cc1 | inactive | – |
| O=C(CN1C(=O)CCn2nc(-c3ccccc3)cc21)NCc1ccc(F)cc1 | inconclusive: 2.28% [signal inhibitor] | – |
| CCCc1[nH][nH]c(=O)c1C(c1cccc(Cl)c1)C(C#N)C#N (stereo unspecified) | inconclusive: 17.2% | – |
| CCOc1ccc(NC(=O)c2cnn(-c3ccc(C)c(C)c3)c2C2CCN(C(=O)OC(C)(C)C)CC2)cc1 | inconclusive: -1.76% [signal inhibitor] | – |
| O=C(O)c1cc(NCc2cccs2)ccc1N1CCOCC1 | inactive | – |
| CCc1ccc(OCC(=O)N(Cc2ccco2)Cc2ccccc2Cl)cc1 | inconclusive: -0.0974% [signal inhibitor] | – |
| Cc1ccc(-c2csc(NC(=O)c3cccc(S(=O)(=O)N4CCN(C)CC4)c3)n2)cc1 | inconclusive: 8.39% [signal inhibitor] | – |
| CCc1noc(-c2ccc(NCc3ccccc3)c([N+](=O)[O-])c2)n1 | inactive | – |
| COc1ccc(NCc2cc3cc4c(cc3n(CC(=O)Nc3ccc(F)cc3)c2=O)OCCO4)cc1 | inconclusive: 3.72% [signal inhibitor] | – |
| COc1cccc(C(=O)N(Cc2cccnc2)c2nc3c(OC)ccc(C)c3s2)c1OC | inconclusive: -1.47% [signal inhibitor] | – |
| O=C(CSc1nc2ccccc2nc1Cc1ccc(Cl)cc1)N1CCCc2ccccc21 | inconclusive: 2.65% [signal inhibitor] | – |
| COc1ccc(NC(=O)c2ccc(COc3ccccc3Br)o2)cc1OC | inconclusive: 12% [signal inhibitor] | – |

| SMILES | IkBa stabilization activation | Potency |
| --- | --- | --- |
| Cc1cccc(C)c1Nc1nc2ccccc2o1 | inactive | – |
| O=C(c1ccc([N+](=O)[O-])cc1)[C@@H](Br)[C@@H](Br)c1ccnc2ccccc12 | – | inconclusive: 5.01 µM [rising, partial curve] |
| Cn1c(=O)c2c(nc(SCCOc3ccc4ccc(=O)oc4c3)n2C)n(C)c1=O | inconclusive: 16.5% [signal inhibitor] | – |
| CCOc1ccc(-c2nnn(CC(=O)Nc3cc(OC)ccc3OC)n2)cc1OCC | inactive | – |
| N#CC(C(=O)OCc1ccccc1)c1nc2ccccc2nc1N1CCOCC1 (stereo unspecified) | inactive | – |
| Cc1nc2ccccc2n2c(-c3ccccc3)c3c(=O)n(C)c(=O)n(C)c3c12 | inconclusive: -1.34% [signal inhibitor] | – |
| Cc1c(C(=O)NCc2ccccn2)sc2nc(-c3ccc(F)cc3)cn12 | inactive | – |
| Cc1cc(C)cc(NC(=O)Cn2c(=O)n(-c3cc(C)cc(C)c3)c(=O)c3oc4ccccc4c32)c1 | inconclusive: 7.89% [signal inhibitor] | – |
| O=C(CN1CCCN(Cc2ccc(F)cc2Cl)C1=O)NCc1ccccc1 | inactive | – |
| COc1cccc(Cn2c(CNC(=O)CCc3ccccc3)nc3cccnc32)c1 | inactive | – |
| Cc1ccc(S(=O)(=O)NCCc2csc(-c3ccc(Cl)cc3)n2)cc1 | inconclusive: 1.12% [signal inhibitor] | – |
| Cc1c(Cl)cccc1NC(=O)CCS(=O)(=O)c1ccc2c(c1)oc(=O)n2C | inconclusive: 1.79% [signal inhibitor] | – |
| Cc1ccc(NC(=O)CSc2nnc(-c3ccccc3Br)o2)cc1C | inconclusive: 3.22% [signal inhibitor] | – |
| CN(c1ccccc1)S(=O)(=O)c1nnc(NC(=O)C2CCCCC2)s1 | inactive | – |
| Cc1cc2nc(-c3ccc(SCC(=O)N4CCOCC4)nc3)[nH]c2cc1C | inconclusive: 11% [signal inhibitor] | – |
| O=C(COC(=O)c1cc(-c2cccs2)nc2ccccc12)c1ccccc1 | inactive | – |
| CCOC(=O)c1oc2ccc(S(=O)(=O)n3nc(-c4ccccc4OC)cc3N)cc2c1C | inconclusive: 17.8% [signal inhibitor] | – |
| O=C(c1ccc2c(c1)N(Cc1ccccc1F)C(=O)c1ccccc1S2(=O)=O)N1CCOCC1 | inactive | – |
| O=C(O)CSCCCC(=O)Nc1ccc(Br)cc1 | inconclusive: 18.4% [signal inhibitor] | – |
| CCCC(=O)Nc1cccc(NC(=O)c2ccc3c(c2)OCO3)c1 | inconclusive: 16.1% [signal inhibitor] | – |
| Cc1ccc(O)c(C(=O)c2cnc3c(c2)CN(CCC(C)C)C(=O)N3)c1 | inactive | – |
| COc1ccc(C2=NC3(CCCCC3)N(CC(=O)Nc3ccc(C(C)C)cc3)C2=O)cc1 | inconclusive: 1.73% [signal inhibitor] | – |
| Cc1ccc(CNc2cc(-c3nn4c(C)nnc4s3)ccc2C)s1 | inactive | – |
| Cn1c(=O)c2c(-c3ccccc3)n3c(c2n(C)c1=O)C(c1ccccc1[N+](=O)[O-])Nc1ccccc1-3 (stereo unspecified) | inconclusive: -0.659% [signal inhibitor] | – |

| SMILES | IkBa stabilization activation | Potency |
| --- | --- | --- |
| NNC(=O)c1ccc[n+](CCc2ccccc2)c1 | inactive: -0.382% [at 11.4 µM, scaled: untreated 0%, proteasome inhibitor 100%] | – |
| COC(=O)N1CCC2(CCN(C(=O)Nc3ccccc3)CC2)CC1 | inactive: 2.16% [at 11.4 µM, scaled: untreated 0%, proteasome inhibitor 100%] | – |
| Cn1c(=O)c2c(c3ccccc31)OC(=O)CC2c1ccc(C(F)(F)F)cc1 (stereo unspecified) | inconclusive: 10.5% [signal inhibitor] | – |
| CCCCCCC/C=C\CCCCCCCCC(=O)O | inactive | – |
| COc1ccccc1CNc1ncnc2ccc(-c3ccoc3)cc12 | inactive: 0.274% [at 11.4 µM, scaled: untreated 0%, proteasome inhibitor 100%] | – |
| Cc1c(C(=O)O)c2cc(O)ccc2n1-c1ccccc1 | inactive | – |
| COc1cccc(NC(=O)c2sc3nc(C)c(C(=O)Nc4ccc(C)cc4C)c(-c4ccccc4Cl)c3c2N)c1 | inconclusive: 4.6% [signal inhibitor] | – |
| CCc1ccc(-c2nc(CN3CCC(C(=O)NCCc4ccc(Cl)cc4)CC3)c(C)o2)cc1 | inconclusive: -0.265% [signal inhibitor] | – |
| COc1ccc(C)cc1NC(=O)CN(Cc1nnc(-c2ccc(Cl)cc2)o1)C1CCCC1 | inconclusive: 1.04% [signal inhibitor] | – |
| O=C(O)/C(Cc1ccc([N+](=O)[O-])cc1)=N/O | inactive: 3.04% [at 11.4 µM, scaled: untreated 0%, proteasome inhibitor 100%] | – |
| Cn1c2ccccc2c2c(C(=O)N3CCN(c4ccccc4)CC3)cn(C3CCCC3)c(=O)c21 | inconclusive: 5.64% [signal inhibitor] | – |
| Cc1ccc2nc(N(Cc3cccnc3)C(=O)Cc3ccccc3)sc2c1 | inconclusive: 0.00275% [signal inhibitor] | – |
| Cc1nn(-c2ccccc2C(=O)O)c(=O)c2ccccc12 | inactive | – |
| CCc1ccccc1NC(=O)CCn1nc(C)c2c(C)n(-c3ccccc3)nc2c1=O | inconclusive: -2.1% [signal inhibitor] | – |
| Cc1ccccc1Cn1c(SCc2ccc(C(=O)NC(C)c3ccccc3)cc2)nc2ccncc21 (stereo unspecified) | inconclusive: 4.73% [signal inhibitor] | – |
| Fc1ccc(NCc2cccn2-c2nnc(N3CCOCC3)s2)cc1 | inconclusive: 1.01% [signal inhibitor] | – |
| CC1CCN(c2ncnc3c2cnn3-c2ccc(F)cc2)CC1 | inconclusive: 4.09% [signal inhibitor] | – |
| O=C(NCCc1cccs1)c1ccc(Cn2c(SCc3ccc(F)cc3)nc3cccnc32)cc1 | inconclusive: 9.45% [signal inhibitor] | – |
| COc1ccc(C(=O)CN2CCN(S(=O)(=O)c3ccc(C(C)C)cc3)CC2)cc1 | inconclusive: 2.39% [signal inhibitor] | – |
| COc1cccc(N2CC(NC(=O)Cc3cccs3)CC2=O)c1 (stereo unspecified) | inactive | – |
| CCOc1ccc(-c2cc(CCCC(=O)NCc3ccco3)no2)cc1 | – | inconclusive: 1.58 µM [signal inhibitor, full curve, poor fit] |
| Cc1ccccc1C(=O)Nc1ccccc1C(=O)OCc1cc(=O)n2ccsc2n1 | inconclusive: -0.713% [signal inhibitor] | – |
| Cc1cc(C)c(Cn2c3ccccc3c3cnn(CC(=O)N4CCCCC4)c(=O)c32)c(C)c1 | inconclusive: 3.62% [signal inhibitor] | – |
